The results in this text go back to PMC10668032.

The list shows a part of the results. At the low end of the ranking, values are background and their order means little.

This test deals with SIX1 homeodomain (reference allele) (UniProt Q15475). Description: universal protein binding microarray. Particulars: Universal all-10-mer PBM (8x60K, AMADID 030236), 300 nM GST-tagged protein, Alexa Fluor 488 anti-GST; buffer, salt, pH and temperature not stated; high values mean tight binding; most listed sequences are background and not binding sites; double strand, one strand shown.
GTAGGCCA: the binding signal was 0.17 E-score. GTCCAGTA: the binding signal was -0.022 E-score. As for ATAGATCG, the binding signal turned out to be 0.29 E-score. Take ACGTGTAC: the binding signal is -0.115 E-score. For the sequence GGCGATTA, the binding signal amounted to 0.0782 E-score. With ACGGAACA the figure was -0.0865 E-score; with CTGGCATC, 0.144 E-score; with GTCTACAC, 0.152 E-score.

As to AGGACAGA, the binding signal was -0.0123 E-score. As for TGATAGAA, the binding signal is 0.0615 E-score. Regarding CGCACGCA, the binding signal is -0.11 E-score. For GTCGCGAC, the binding signal stood at 0.0418 E-score. Regarding CGCTGTAA, the binding signal was -0.00013 E-score. Consider AACGCCCG, for which the binding signal was -0.00791 E-score. Consider ATCTATAA, for which the binding signal was 0.129 E-score. In the case of AAATTCGG, the binding signal stood at 0.0895 E-score. With AACGGGCG the figure was -0.196 E-score; with CGCCGGTC, -0.155 E-score; with AGGGGTAT, 0.451 E-score.

Consider CACGCTTA, for which the binding signal is -0.089 E-score. On to ACACATCG, for which the binding signal is -0.0745 E-score. For CTTCCTCA, the binding signal worked out at 0.0998 E-score. The same measure for GCCCTCCC: -0.0271 E-score; for AAGATTAA: 0.0139 E-score; for CGCGCACC: -0.246 E-score. In the case of CAAGCAAC, the binding signal was -0.0422 E-score. On to CCATCGGC, for which the binding signal is -0.152 E-score. Take TAGCTATA: the binding signal amounted to 0.219 E-score. With AAGATATA the figure was 0.28 E-score; with CGTGCCCC, -0.0646 E-score. Take GAGATAAC: the binding signal came out at 0.00349 E-score. Turning to GTGTACGA, the binding signal came out at 0.143 E-score. Consider AGCCATCG, for which the binding signal is 0.173 E-score. With TCTTGTAA the figure was -0.0871 E-score; with AGGCCCTC, -0.203 E-score. With CCGACCCC the figure was -0.0364 E-score; with CAGATTCG, -0.0198 E-score. In the case of CGGCAGTC, the binding signal was -0.0341 E-score. On to TCGCGACA, for which the binding signal is 0.193 E-score. With CATACCGG, the binding signal was found to be 0.166 E-score. As to CAGGAAAA, the binding signal came to 0.0276 E-score. The same measure for GCCTTAAA: -0.282 E-score; for AAGTCTGT: -0.22 E-score; for CAATGCAC: -0.0407 E-score. As for AGATTGAA, the binding signal was -0.0776 E-score.

Regarding AAAAAGGC, the binding signal is -0.102 E-score. With ACCTATAC, the binding signal amounted to 0.275 E-score. Take AGGTGAAG: the binding signal is -0.144 E-score. With TCAATTCA the figure was -0.034 E-score; with AACGATAG, 0.175 E-score; with AGAGATAG, 0.153 E-score.

Regarding CCGGCCAG, the binding signal was -0.0713 E-score. GAGCGATA: the binding signal was 0.344 E-score.

Regarding TGTGATAA, the binding signal was -0.00135 E-score. For AGGAGAGG, the binding signal came to 0.137 E-score. TCTTTCAA: the binding signal was -0.0888 E-score. For GATTCGTA, the binding signal is 0.109 E-score. As to ATGGGGAG, the binding signal was -0.0213 E-score. As for CTATGGGA, the binding signal amounted to 0.0544 E-score. On to AGCCTTTA, for which the binding signal was -0.189 E-score. For GCGTTGGA, the binding signal was 0.098 E-score. AAGAGACC: the binding signal turned out to be 0.0447 E-score. Consider CACATGTA, for which the binding signal was -0.0324 E-score. As for ATTTGCAA, the binding signal was -0.2 E-score. With GTTTTCAA the figure was -0.26 E-score; with GGTGGCTA, 0.092 E-score; with CGGCCATA, 0.025 E-score. As to AACCGGGA, the binding signal is -0.0255 E-score. As to CTTGTGGC, the binding signal was -0.224 E-score. On to GAGGTGAA, for which the binding signal is -0.129 E-score. As for CGGCGTCC, the binding signal was -0.154 E-score. The same measure for ACGAGGCG: 0.00865 E-score; for ACGCGCGA: 0.00968 E-score; for CCCGTAGG: 0.129 E-score. With AACCCGGG the figure was 0.177 E-score; with ACGTCCCG, -0.239 E-score; with GGTAAAAC, -0.147 E-score. With CACGTAAC, the binding signal was -0.253 E-score. Regarding AGAGTTTC, the binding signal is -0.293 E-score.

With TGGATTAA, the binding signal is 0.145 E-score.

In the case of CCCTGTCA, the binding signal is -0.0609 E-score. In the case of AGAGGCTG, the binding signal is -0.259 E-score. As for CATGATAC, the binding signal was 0.481 E-score. With GCGTAGGA the figure was 0.134 E-score. For GAAGCTAA, the binding signal was -0.159 E-score. With ACCATGCG, the binding signal came to 0.129 E-score. With ATTTATCA the figure was -0.051 E-score; with GGATGTCA, 0.0855 E-score. Regarding CCTTTTCG, the binding signal is -0.26 E-score. CAAACTCG: the binding signal is -0.256 E-score. For ATCAAGAT, the binding signal was 0.209 E-score. On to AGGCAAGA, for which the binding signal was -0.0736 E-score. With AGATTCCG the figure was 0.0802 E-score; with ACGATGAT, 0.235 E-score. For GCCCACCC, the binding signal worked out at 0.0209 E-score. With CAGGGTAG the figure was 0.0982 E-score; with AAAGTTAC, -0.227 E-score; with AACTGTAA, -0.25 E-score. With CCGCCAAA the figure was -0.0985 E-score; with CCGTTCAG, -0.11 E-score.

As to ACTCCCTC, the binding signal is -0.163 E-score. Turning to CGATGACG, the binding signal was -0.17 E-score.

Regarding CTGGGACC, the binding signal was -0.184 E-score. On to ACGAATTC, for which the binding signal is -0.165 E-score.

For the sequence AAGTTTAC, the binding signal is -0.206 E-score. Take ACGATGAA: the binding signal was -0.166 E-score.

Take CAATCGTC: the binding signal was -0.155 E-score. As to GACATGCC, the binding signal amounted to 0.0105 E-score. As for ACATTCCC, the binding signal was -0.179 E-score.

For the sequence ACTTGGGG, the binding signal was -0.0492 E-score. AAGCCTGG: the binding signal was -0.154 E-score.

For CAAGCAGC, the binding signal is -0.235 E-score. As to AGACAAAT, the binding signal was -0.165 E-score. With GGCACAAC, the binding signal was -0.305 E-score. Regarding GGACCACA, the binding signal was -0.102 E-score. The same measure for AAAGGCAT: -0.121 E-score; for AAACAGCT: -0.0708 E-score. The same measure for ATGAAAAA: -0.0614 E-score; for CCCCGGGA: 0.106 E-score; for GGGCAGGA: 0.224 E-score.

In the case of ATTAATCG, the binding signal was 0.16 E-score.

ACGTATAG: the binding signal came to 0.189 E-score. CTCCAATC: the binding signal worked out at 0.0261 E-score. The same measure for ACTTATGA: -0.148 E-score; for AATTTAGA: -0.029 E-score. With ACGTTCAT the figure was -0.166 E-score; with GCTCTCCC, -0.0111 E-score.

On to ATGTCACA, for which the binding signal was -0.0732 E-score. On to AATAATGT, for which the binding signal was -0.032 E-score. For the sequence CTAAAATC, the binding signal is -0.236 E-score. As to TTCGCCAA, the binding signal was -0.121 E-score. For the sequence GCGTTGCC, the binding signal is -0.19 E-score. Turning to GATTGCGA, the binding signal came to 0.0564 E-score.

As to CGGGGGAG, the binding signal is -0.00346 E-score. For CATAGCAC, the binding signal is -0.0868 E-score. For the sequence ACTATAAC, the binding signal is -0.124 E-score. As for TATTACCA, the binding signal amounted to 0.166 E-score. For the sequence GATTTGAC, the binding signal amounted to 0.0319 E-score. For AGTGGGCA, the binding signal was -0.182 E-score. With CAAAGCCA the figure was -0.269 E-score; with GCTGAACA, -0.228 E-score; with CCATGGTC, -0.0922 E-score.

For the sequence CTGAGGCA, the binding signal was -0.107 E-score. With CATTCGAG, the binding signal came out at 0.0507 E-score.

In the case of CTATCAAG, the binding signal stood at 0.155 E-score. For the sequence ATCTTACG, the binding signal was -0.113 E-score. As for ATTTCGCA, the binding signal is -0.228 E-score. Turning to CATGTCAG, the binding signal is -0.0821 E-score. Regarding CAGTATGG, the binding signal is -0.0299 E-score.

As to CAAAAAAG, the binding signal is -0.251 E-score. Regarding TATTGCCA, the binding signal came out at 0.049 E-score. For the sequence ATAACTTG, the binding signal was -0.0106 E-score. Take CCGACCTC: the binding signal is -0.0749 E-score. Consider CGAAATTA, for which the binding signal was -0.235 E-score. On to CGAAGTGC, for which the binding signal is -0.293 E-score. The same measure for AGAATACG: 0.218 E-score. With CCTGCAAA the figure was -0.0191 E-score; with CGTAACTC, -0.196 E-score; with CCGGTCTC, 0.0914 E-score.

AAGAATAT: the binding signal stood at 0.0119 E-score.

AAATCCAT: the binding signal amounted to 0.121 E-score.

As to GGTCGCAA, the binding signal is -0.0785 E-score. On to GTAGAGTA, for which the binding signal was 0.181 E-score.

CTTGCAAG: the binding signal is -0.0752 E-score. Take ATTCTCCA: the binding signal worked out at 0.0475 E-score.

For the sequence ATATTCGG, the binding signal was 0.108 E-score. As for GCCGACCA, the binding signal was determined as 0.0371 E-score. Regarding ATGACTCG, the binding signal is -0.0829 E-score. For the sequence ATCTCCTC, the binding signal worked out at 0.284 E-score.

Take GGTGCCGA: the binding signal was -0.111 E-score.

Consider ACATGGAC, for which the binding signal was -0.206 E-score. With AACTGTCC the figure was -0.216 E-score.
